Experimental findings from paper PMC4460075, “ULK2 Ser 1027 Phosphorylation by PKA Regulates Its Nuclear Localization Occurring through Karyopherin Beta 2 Recognition of a PY-NLS Motif” (PLoS ONE, 2015) are described below.

Amino acid sequences for entries named in this document (tags omitted).
UniProt Q92973: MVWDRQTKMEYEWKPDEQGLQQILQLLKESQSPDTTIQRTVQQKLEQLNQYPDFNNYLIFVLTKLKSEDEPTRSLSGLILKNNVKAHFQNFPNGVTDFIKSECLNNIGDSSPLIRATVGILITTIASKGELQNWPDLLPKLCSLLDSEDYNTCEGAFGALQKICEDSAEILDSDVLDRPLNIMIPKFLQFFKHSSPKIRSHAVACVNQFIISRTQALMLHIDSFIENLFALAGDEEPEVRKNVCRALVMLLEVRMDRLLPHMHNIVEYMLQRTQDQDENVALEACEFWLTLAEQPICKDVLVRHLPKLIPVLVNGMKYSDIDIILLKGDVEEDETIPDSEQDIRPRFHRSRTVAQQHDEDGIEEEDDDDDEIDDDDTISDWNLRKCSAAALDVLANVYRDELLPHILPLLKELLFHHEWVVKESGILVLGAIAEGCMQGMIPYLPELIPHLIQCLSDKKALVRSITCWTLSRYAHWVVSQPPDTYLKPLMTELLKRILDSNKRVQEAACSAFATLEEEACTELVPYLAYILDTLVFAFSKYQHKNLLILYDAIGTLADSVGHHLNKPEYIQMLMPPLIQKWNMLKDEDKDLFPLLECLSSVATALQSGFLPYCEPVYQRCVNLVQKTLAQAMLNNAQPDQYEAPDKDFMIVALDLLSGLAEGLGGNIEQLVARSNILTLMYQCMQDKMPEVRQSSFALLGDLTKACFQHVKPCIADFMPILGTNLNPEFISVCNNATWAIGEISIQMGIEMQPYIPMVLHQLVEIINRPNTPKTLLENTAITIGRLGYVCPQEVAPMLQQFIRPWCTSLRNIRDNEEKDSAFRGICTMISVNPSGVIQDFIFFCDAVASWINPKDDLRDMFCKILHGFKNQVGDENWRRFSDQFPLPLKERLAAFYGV

Results are given in words; binding and its absence hold for the method and conditions named. Binding seen in cells or lysates may run through a third protein. Some results given as binding are weak or reduced against the parent protein; the word gives no strength. For some of these results: Sequences can lack the tags named with a protein.

In assay [1] the target is karyopherin beta 2 (Kapβ2), endogenous (human (endogenous in HEK293)) (UniProt Q92973). The experiment in a line: co-IP; endogenous proteins of HEK293 lysate; IP with anti-ULK2 and blot for Kapβ2, and IP with anti-Kapβ2 and blot for ULK2; Protein A-Sepharose; control IP with an unrelated anti-EGFP antibody.
Assay [2] addresses GST-Kapβ2 (pGEX-5X-1 Kapβ2 fusion protein) (UniProt Q92973). The assay can be described thus: pull-down; GST-Kapβ2 beads (purified from E. coli) with lysate of HEK293 cells transfected with EGFP-ULK2 WT, P242A or P794A; 2 hours at 4°C; blot for ULK2/EGFP; only the target purified.

B1: Uncoordinated 51-like kinase 2 (ULK2), endogenous (natural protein, human (endogenous in HEK293), UniProt Q8IYT8 1-1036, looked up)
chain: MEVVGDFEYSKRDLVGHGAFAVVFRGRHRQKTDWEVAIKSINKKNLSKSQILLGKEIKILKELQHENIVALYDVQELPNSVFLVMEYCNGGDLADYLQAKGTLSEDTIRVFLHQIAAAMRILHSKGIIHRDLKPQNILLSYANRRKSSVSGIRIKIADFGFARYLHSNMMAATLCGSPMYMAPEVIMSQHYDAKADLWSIGTVIYQCLVGKPPFQANSPQDLRMFYEKNRSLMPSIPRETSPYLANLLLGLLQRNQKDRMDFEAFFSHPFLEQGPVKKSCPVPVPMYSGSVSGSSCGSSPSCRFASPPSLPDMQHIQEENLSSPPLGPPNYLQVSKDSASTSSKNSSCDTDDFVLVPHNISSDHSCDMPVGTAGRRASNEFLVCGGQCQPTVSPHSETAPIPVPTQIRNYQRIEQNLTSTASSGTNVHGSPRSAVVRRSNTSPMGFLRPGSCSPVPADTAQTVGRRLSTGSSRPYSPSPLVGTIPEQFSQCCCGHPQGHDSRSRNSSGSPVPQAQSPQSLLSGARLQSAPTLTDIYQNKQKLRKQHSDPVCPSHTGAGYSYSPQPSRPGSLGTSPTKHLGSSPRSSDWFFKTPLPTIIGSPTKTTAPFKIPKTQASSNLLALVTRHGPAEEQSKDGNEPRECAHCLLVQGSERQRAEQQSKAVFGRSVSTGKLSDQQGKTPICRHQGSTDSLNTERPMDIAPAGACGGVLAPPAGTAASSKAVLFTVGSPPHSAAAPTCTHMFLRTRTTSVGPSNSGGSLCAMSGRVCVGSPPGPGFGSSPPGAEAAPSLRYVPYGASPPSLEGLITFEAPELPEETLMEREHTDTLRHLNVMLMFTECVLDLTAMRGGNPELCTSAVSLYQIQESVVVDQISQLSKDWGRVEQLVLYMKAAQLLAASLHLAKAQIKSGKLSPSTAVKQVVKNLNERYKFCITMCKKLTEKLNRFFSDKQRFIDEINSVTAEKLIYNCAVEMVQSAALDEMFQQTEDIVYRYHKAALLLEGLSRILQDPADIENVHKYKCSIERRLSALCHSTATV
B1: in assay [1], the binding result is “binds”.

B2: EGFP-ULK2 WT (natural protein, human, UniProt Q8IYT8 1-1036, looked up)
chain: MEVVGDFEYSKRDLVGHGAFAVVFRGRHRQKTDWEVAIKSINKKNLSKSQILLGKEIKILKELQHENIVALYDVQELPNSVFLVMEYCNGGDLADYLQAKGTLSEDTIRVFLHQIAAAMRILHSKGIIHRDLKPQNILLSYANRRKSSVSGIRIKIADFGFARYLHSNMMAATLCGSPMYMAPEVIMSQHYDAKADLWSIGTVIYQCLVGKPPFQANSPQDLRMFYEKNRSLMPSIPRETSPYLANLLLGLLQRNQKDRMDFEAFFSHPFLEQGPVKKSCPVPVPMYSGSVSGSSCGSSPSCRFASPPSLPDMQHIQEENLSSPPLGPPNYLQVSKDSASTSSKNSSCDTDDFVLVPHNISSDHSCDMPVGTAGRRASNEFLVCGGQCQPTVSPHSETAPIPVPTQIRNYQRIEQNLTSTASSGTNVHGSPRSAVVRRSNTSPMGFLRPGSCSPVPADTAQTVGRRLSTGSSRPYSPSPLVGTIPEQFSQCCCGHPQGHDSRSRNSSGSPVPQAQSPQSLLSGARLQSAPTLTDIYQNKQKLRKQHSDPVCPSHTGAGYSYSPQPSRPGSLGTSPTKHLGSSPRSSDWFFKTPLPTIIGSPTKTTAPFKIPKTQASSNLLALVTRHGPAEEQSKDGNEPRECAHCLLVQGSERQRAEQQSKAVFGRSVSTGKLSDQQGKTPICRHQGSTDSLNTERPMDIAPAGACGGVLAPPAGTAASSKAVLFTVGSPPHSAAAPTCTHMFLRTRTTSVGPSNSGGSLCAMSGRVCVGSPPGPGFGSSPPGAEAAPSLRYVPYGASPPSLEGLITFEAPELPEETLMEREHTDTLRHLNVMLMFTECVLDLTAMRGGNPELCTSAVSLYQIQESVVVDQISQLSKDWGRVEQLVLYMKAAQLLAASLHLAKAQIKSGKLSPSTAVKQVVKNLNERYKFCITMCKKLTEKLNRFFSDKQRFIDEINSVTAEKLIYNCAVEMVQSAALDEMFQQTEDIVYRYHKAALLLEGLSRILQDPADIENVHKYKCSIERRLSALCHSTATV
Regarding B2, the binding result in assay [2] was “binds”.

B3: EGFP-ULK2 P242A mutant (natural protein, human, UniProt Q8IYT8 1-1036, looked up)
chain: MEVVGDFEYSKRDLVGHGAFAVVFRGRHRQKTDWEVAIKSINKKNLSKSQILLGKEIKILKELQHENIVALYDVQELPNSVFLVMEYCNGGDLADYLQAKGTLSEDTIRVFLHQIAAAMRILHSKGIIHRDLKPQNILLSYANRRKSSVSGIRIKIADFGFARYLHSNMMAATLCGSPMYMAPEVIMSQHYDAKADLWSIGTVIYQCLVGKPPFQANSPQDLRMFYEKNRSLMPSIPRETSAYLANLLLGLLQRNQKDRMDFEAFFSHPFLEQGPVKKSCPVPVPMYSGSVSGSSCGSSPSCRFASPPSLPDMQHIQEENLSSPPLGPPNYLQVSKDSASTSSKNSSCDTDDFVLVPHNISSDHSCDMPVGTAGRRASNEFLVCGGQCQPTVSPHSETAPIPVPTQIRNYQRIEQNLTSTASSGTNVHGSPRSAVVRRSNTSPMGFLRPGSCSPVPADTAQTVGRRLSTGSSRPYSPSPLVGTIPEQFSQCCCGHPQGHDSRSRNSSGSPVPQAQSPQSLLSGARLQSAPTLTDIYQNKQKLRKQHSDPVCPSHTGAGYSYSPQPSRPGSLGTSPTKHLGSSPRSSDWFFKTPLPTIIGSPTKTTAPFKIPKTQASSNLLALVTRHGPAEEQSKDGNEPRECAHCLLVQGSERQRAEQQSKAVFGRSVSTGKLSDQQGKTPICRHQGSTDSLNTERPMDIAPAGACGGVLAPPAGTAASSKAVLFTVGSPPHSAAAPTCTHMFLRTRTTSVGPSNSGGSLCAMSGRVCVGSPPGPGFGSSPPGAEAAPSLRYVPYGASPPSLEGLITFEAPELPEETLMEREHTDTLRHLNVMLMFTECVLDLTAMRGGNPELCTSAVSLYQIQESVVVDQISQLSKDWGRVEQLVLYMKAAQLLAASLHLAKAQIKSGKLSPSTAVKQVVKNLNERYKFCITMCKKLTEKLNRFFSDKQRFIDEINSVTAEKLIYNCAVEMVQSAALDEMFQQTEDIVYRYHKAALLLEGLSRILQDPADIENVHKYKCSIERRLSALCHSTATV
Turning to B3, the binding result in assay [2] is recorded as “binds”.

B4: EGFP-ULK2 PY-NLS mutant (P794A) (natural protein, human, UniProt Q8IYT8 1-1036, looked up)
chain: MEVVGDFEYSKRDLVGHGAFAVVFRGRHRQKTDWEVAIKSINKKNLSKSQILLGKEIKILKELQHENIVALYDVQELPNSVFLVMEYCNGGDLADYLQAKGTLSEDTIRVFLHQIAAAMRILHSKGIIHRDLKPQNILLSYANRRKSSVSGIRIKIADFGFARYLHSNMMAATLCGSPMYMAPEVIMSQHYDAKADLWSIGTVIYQCLVGKPPFQANSPQDLRMFYEKNRSLMPSIPRETSPYLANLLLGLLQRNQKDRMDFEAFFSHPFLEQGPVKKSCPVPVPMYSGSVSGSSCGSSPSCRFASPPSLPDMQHIQEENLSSPPLGPPNYLQVSKDSASTSSKNSSCDTDDFVLVPHNISSDHSCDMPVGTAGRRASNEFLVCGGQCQPTVSPHSETAPIPVPTQIRNYQRIEQNLTSTASSGTNVHGSPRSAVVRRSNTSPMGFLRPGSCSPVPADTAQTVGRRLSTGSSRPYSPSPLVGTIPEQFSQCCCGHPQGHDSRSRNSSGSPVPQAQSPQSLLSGARLQSAPTLTDIYQNKQKLRKQHSDPVCPSHTGAGYSYSPQPSRPGSLGTSPTKHLGSSPRSSDWFFKTPLPTIIGSPTKTTAPFKIPKTQASSNLLALVTRHGPAEEQSKDGNEPRECAHCLLVQGSERQRAEQQSKAVFGRSVSTGKLSDQQGKTPICRHQGSTDSLNTERPMDIAPAGACGGVLAPPAGTAASSKAVLFTVGSPPHSAAAPTCTHMFLRTRTTSVGPSNSGGSLCAMSGRVCVGSPPGPGFGSSPPGAEAAPSLRYVAYGASPPSLEGLITFEAPELPEETLMEREHTDTLRHLNVMLMFTECVLDLTAMRGGNPELCTSAVSLYQIQESVVVDQISQLSKDWGRVEQLVLYMKAAQLLAASLHLAKAQIKSGKLSPSTAVKQVVKNLNERYKFCITMCKKLTEKLNRFFSDKQRFIDEINSVTAEKLIYNCAVEMVQSAALDEMFQQTEDIVYRYHKAALLLEGLSRILQDPADIENVHKYKCSIERRLSALCHSTATV
For B4, in assay [2], the binding entry is given as “no binding”.
